The values below come from patent US20220340642A1 (Kyowa Kirin, published 2022).

Test [1] concerns the target T1, soluble recombinant of human TL1A (His6, GS linker, Leu72-Leu251) (human, UniProt O95150 72-251).
T1 construct: also called His6-TL1A; hTL1A
T1 sequence: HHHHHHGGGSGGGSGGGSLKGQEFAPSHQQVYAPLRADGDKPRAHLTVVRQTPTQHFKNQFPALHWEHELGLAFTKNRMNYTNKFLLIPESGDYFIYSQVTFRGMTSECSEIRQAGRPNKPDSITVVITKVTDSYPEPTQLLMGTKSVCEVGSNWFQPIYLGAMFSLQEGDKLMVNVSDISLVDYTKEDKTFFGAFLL
The test is described as follows: SPR, binder captured on Protein A chip. The protocol: (§1) The binding activity to human and cynomolgus monkey DcR3 ligand trimers were analyzed by the SPR method. BIAcore T-100 (GE Healthcare) was used for measurement of the binding activities to human LIGHT, cynomolgus monkey LIGHT, human TL1A and cynomolgus monkey TL1A, and BIAcore T-200 (GE Healthcare) was used for measurement of the binding activities to human FasL and cynomolgus monkey FasL. As the buffer, HBS-EP+Buffer was used.
(§2) Various DcR3 variants were injected into Series S Sensor Chip Protein A (GE Healthcare) at 10 μL/min for 30 seconds and captured. Meanwhile, the buffer containing no protein was injected into a reference flow cell. Thereafter, as an analyte, each human DcR3 ligand trimer or each cynomolgus monkey DcR3 ligand trimer diluted to 0.08 to 20 nmol/L was injected. A human LIGHT trimer, a human TL1A trimer or each cynomolgus monkey DcR3 ligand trimer was injected at the flow rate of 30 μL/min for 2 minutes to monitor the binding, and subsequently the buffer was injected for 5 minutes to monitor dissociation. A human FasL trimer was injected at 30 μL/min for 1 minute to monitor the binding, and subsequently the buffer was injected for 3 minutes to monitor dissociation. Then, 3 mol/L magnesium chloride was injected at 30 μL/min for 1 minute to perform a regeneration reaction.

The target of test [2] is T2, soluble recombinant of cynomolgus monkey TL1A (His6, GS linker, Leu72-Leu251) (cynomolgus monkey).
T2 construct: also called His6-cynoTL1A
T2 chain: T1 sequence with F57L, I96V
The test can be described thus: SPR, binder captured on Protein A chip. As for the experimental part: as §1, §2

The target in test [3] is T3, soluble recombinant of cynomolgus monkey FasL (His6, Pro133-Leu280) (cynomolgus monkey, UniProt P63308 133-280).
T3 construct: also called His6-cynoFasL
T3 sequence: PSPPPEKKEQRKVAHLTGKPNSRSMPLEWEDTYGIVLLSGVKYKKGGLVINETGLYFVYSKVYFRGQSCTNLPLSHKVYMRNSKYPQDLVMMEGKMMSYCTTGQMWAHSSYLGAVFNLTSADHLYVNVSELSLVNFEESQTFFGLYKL
The test can be described thus: SPR, binder captured on Protein A chip. As for the experimental part:
as §1, §2

Test [4] concerns the target T4, FLAG-LIGHT (FLAG tag, human LIGHT Asp74-Val240) (human, UniProt O43557 74-240).
T4 construct: SEC trimer fraction; also called soluble recombinant FLAG-LIGHT trimer; soluble human LIGHT trimer
The test can be described thus: SPR, binder captured on Protein A chip. As for the experimental part:
as §1, §2

Test [5] addresses T5, FLAG-cynoLIGHT (FLAG tag, cynomolgus monkey LIGHT Asp74-Val240) (cynomolgus monkey).
T5 construct: SEC trimer fraction; also called soluble cynomolgus monkey LIGHT trimer
T5 chain: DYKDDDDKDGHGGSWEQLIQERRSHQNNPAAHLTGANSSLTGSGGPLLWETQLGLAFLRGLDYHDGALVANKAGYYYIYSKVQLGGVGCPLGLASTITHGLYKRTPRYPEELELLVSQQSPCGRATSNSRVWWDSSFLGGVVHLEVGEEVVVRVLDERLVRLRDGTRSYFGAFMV
The test is described as follows: SPR, binder captured on Protein A chip. The protocol: as §1, §2

In test [6] the target is T6, soluble recombinant of human TL1A (His6, GS linker, Leu72-Leu251) (UniProt O95150 72-251).
T6 chain: T1 sequence
The test can be described thus: BIAcore SPR. A digest of the protocol: (§3)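 The dissociation constant (Kd, nM) reflects binding of each test molecule to soluble recombinant His-tagged human or cynomolgus monkey LIGHT, TL1A or FasL. It was derived from surface plasmon resonance measurements in HBS-EP+ Buffer using a BIAcore T-100 or T-200 instrument (GE Healthcare).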

The target in test [7] is T7, soluble recombinant of human LIGHT (His10, GS linker, Asp74-Val240).
T7 chain: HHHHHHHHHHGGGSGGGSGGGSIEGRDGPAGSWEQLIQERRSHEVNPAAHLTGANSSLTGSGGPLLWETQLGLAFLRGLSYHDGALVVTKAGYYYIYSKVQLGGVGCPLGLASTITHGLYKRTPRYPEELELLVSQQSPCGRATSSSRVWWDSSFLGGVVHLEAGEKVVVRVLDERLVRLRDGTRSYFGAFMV
The test is described as follows: BIAcore SPR. A digest of the protocol:
as §3

The target of test [8] is T8, soluble recombinant of human FasL (His6, Pro134-Leu281) (UniProt P48023 134-281).
T8 chain: T3 sequence with Q10L, P20S, T70N, H108R
The test is described as follows: BIAcore SPR. A digest of the protocol:
as §3

For test [9], the target named is T9, soluble recombinant of cynomolgus monkey LIGHT (His10, GS linker, Asp74-Val240).
T9 chain: T7 chain with P29H, A30G, E44Q, V45N, S80D, V88A, T89N, S146N, A164V, K167E
The test is described as follows: BIAcore SPR. The method, boiled down: as §3

Test [10] has as its target T10, soluble recombinant of cynomolgus monkey FasL (His6, Pro133-Leu280) (UniProt P63308 133-280).
T10 chain: T3 sequence
The test is described as follows: BIAcore SPR. A digest of the protocol: as §3

Test [11] deals with T11, soluble recombinant of cynomolgus monkey TL1A (His6, GS linker, Leu72-Leu251).
T11 chain: T1 sequence with F57L, I96V
The test can be described thus: BIAcore SPR. The method, boiled down: as §3

Where a chain is given by its changes, count along the chain named. In names and notes the source's numbering stands.

B1: chimera A-Fc (Eg1S LALAGA) (Fc fusion)
chain: ETFPPKYLHYDEETSHQLLCDKCPPGTYLKQHCTAKWKTVCAPCPPRHYTQFWNYLERCRYCNVLCGEREEEARACHATHNRACRCRTGFFAHAGFCLEHASCPPGAGVIAPGTPSQNTQCQPCPDGFFSNETSSKAPCRKHTNCSVFGLLLTQKGNATHDNICSGNSESTQK[omitted - human IgG1 Fc with C220S L234A L235A G237A (EU numbers)]
Consider B1, for which the binding result in test [1], in [2], in test [3], in [4] and in test [5] was “binds” in each case. Also, the Kd is 0.12 nM in test [6]; 0.19 nM in test [7]; 0.83 nM in [8]; 0.2 nM in [9]; 0.21 nM in test [10]; 0.11 nM in test [11].

B2: chimera A-Fc (Eg1S N434A) (Fc fusion)
chain: ETFPPKYLHYDEETSHQLLCDKCPPGTYLKQHCTAKWKTVCAPCPPRHYTQFWNYLERCRYCNVLCGEREEEARACHATHNRACRCRTGFFAHAGFCLEHASCPPGAGVIAPGTPSQNTQCQPCPDGFFSNETSSKAPCRKHTNCSVFGLLLTQKGNATHDNICSGNSESTQK[omitted - human IgG1 Fc with changes]
B2: the binding result in test [1], in test [2], in test [3], in test [4] and in test [5] was “binds” in each case. Also, the Kd is 0.13 nM in test [6]; 0.2 nM in [7]; 0.82 nM in test [8]; 0.21 nM in test [9]; 0.22 nM in test [10]; 0.12 nM in test [11].
